Data as given in patent US20220008504A1, “METHODS AND COMPOSITIONS FOR TREATMENT OF ABERRANT HEMATOPOIESIS” (The Methodist Hospital, priority 2019, published 2022).

Assays:
Lin-Sca-1+c-Kit+ HSPCs = system: Lin-Sca-1+c-Kit+ HSPCs; parameters: species or system mice; details: mouse, in vivo
SREBP2 = assay: Immunoblot of SREBP2 activation in HUVECs; type: cell-based, human
From the text: SS: secretion signal. FIGS. 3B and 3C show qRT-PCR analyses of srebf1 and srebf2 in the AGM regions of Aibp2 overexpression (FIG. 3B) or knockdown zebrafish (FIG. 3C). […] P: Srebp2 precursor; N: nuclear Srebp2.
Cellular cholesterol homeostasis is sustained by LDL cholesterol uptake, Srebp2-mediated cholesterol synthesis, and HDL-mediated cholesterol efflux. Since cholesterol pools in the plasma membrane and ER are interconnected, Applicants next probed the effect of cholesterol efflux on Srebp2 activation.

cmyb+kdrl+ cells = cmyb+kdrl+ cells (nascent HSCs) in the DA floor; details: zebrafish, in vivo
srebf2 = srebf2 expression (mirrors Srebp2 transcriptional activity); details: zebrafish, in vivo
runx1 expression = assay: WISH analysis of runx1 expression in Aibp2-deficient zebrafish (HSC emergence); details: apoa1bp2 knockouts or morphants treated with atorvastatin; FIG. 2C
free cholesterol levels = details: Aibp2-deficient animals
HSC emergence = assay: HSC emergence, WISH of runx1 in the DA, with or without Srebp2 disruption; details: FIG. 4C

C=C(C)[C@@H]1CC[C@]2(CO)CC[C@]3(C)[C@H](CC[C@@H]4[C@@]5(C)CC[C@H](O)C(C)(C)[C@@H]5CC[C@]43C)[C@@H]12 [betulin]
HFD-induced increase in HSC numbers in the bone marrow (Lin-Sca-1+c-Kit+ HSPCs): inhibited
WD-induced augmentation of HSPC frequency (Lin-Sca-1+c-Kit+ HSPCs): abolished

Methyl-β-cyclodextrin [MβCD]
SREBP2 activation (SREBP2): robustly activated

CC(C)c1c(C(=O)Nc2ccccc2)c(-c2ccccc2)c(-c2ccc(F)cc2)n1CC[C@@H](O)C[C@@H](O)CC(=O)O [Atorvastatin, atorvastatin]
cmyb+kdrl+ cells in the DA floor (cmyb+kdrl+ cells): expanded
srebf2 expression (srebf2): markedly augmented
runx1 expression (runx1 expression): restored largely
free cholesterol levels (free cholesterol levels): reduced
HSC emergence (HSC emergence): augmented
atorvastatin-augmented HSC emergence under Srebp2 disruption (HSC emergence; Srebp2 disruption): abolished
